{"source": "the supplement of paper PMC8728848", "binders": {"B1": {"name": "PX9961T-pdi-555-33-555 (Parabacteroides distasonis) (protein)", "chain": "FDEETAFQSPTLVYVNTVASLYNNMFKIMGNDRHVYDLNTFSSDEAMLPCRIGDWEDGGLWQNIFLHRWGTMNDLTKNSWDFLYEQIGKCNQSVDKLQAFAEEQPDVEYFKVYLEEVRAVRAFFYYELLDLFARVPLVTSSTTPMSEVKQSERSVVFNFVRSELEEALPYLSDNRSNQKGEYYGRITKPVAYMILAKLALNAEVYADDNWTDGNRPAGKNIKFTVDGKEMNAWEATIAYVDKLEALGYKLQGNFSENFAVANETSVENIFTVPMDPVAYPDAKDYNLVRTRHYDHATAYGQSGWNGSCATVKAMNVFKFGTADEDPRCKLTYFTGEVTGPDGKTIYTEWDGQKVPLKYEPNAPKVYMDASDGLLVKTAGARMAKYEFDQNAQDGGNLHGNDCVIFRFADALLMKAEAKIRLGQNGDDEVNQVRNRVGAKPLQNVTLDTLLDERMLELAWEGVRRQDLIRFGKFTEATVDRYVGVKHFASSLDYQEDKTGYTTVFSIYADILSLNPNLTQNPGY"}}, "assay_in_all_cases": "glycan array binding signal (z-score within array); higher = stronger binding", "details_in_all_cases": "glycan notation: IUPAC condensed, linker removed", "key": {"[1]": {"target": "Fuc(a1-2)[Gal(a1-4)]Gal(b1-4)GlcNAc", "how_it_was_run": "(§1)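 The Consortium for Functional Glycomics database supplied 3228 glycan arrays, of which those lacking an available protein sequence were dropped. The binding signal, a within-array Z-score, was averaged across arrays of the same protein sequence and across linkers. Negative scores can be read as non-binding.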"}, "[2]": {"target": "Fuc(a1-2)[GalNAc(a1-3)]Gal", "how_it_was_run": "as §1"}, "[3]": {"target": "Fuc(a1-2)[GalNAc(a1-3)]Gal(b1-3)GalNAc(a1-3)[Fuc(a1-2)]Gal(b1-4)GlcNAc", "how_it_was_run": "as §1"}, "[4]": {"target": "Fuc(a1-2)[GalNAc(a1-3)]Gal(b1-3)GalNAc(b1-3)Gal(a1-4)Gal(b1-4)Glc", "how_it_was_run": "as §1"}, "[5]": {"target": "Fuc(a1-2)[GalNAc(a1-3)]Gal(b1-3)GlcNAc", "how_it_was_run": "as §1"}, "[6]": {"target": "Fuc(a1-2)[GalNAc(a1-3)]Gal(b1-3)GlcNAc(b1-2)Man(a1-3)[Fuc(a1-2)[GalNAc(a1-3)]Gal(b1-3)GlcNAc(b1-2)Man(a1-6)]Man(b1-4)GlcNAc(b1-4)GlcNAc", "how_it_was_run": "as §1"}, "[7]": {"target": "Fuc(a1-2)[GalNAc(a1-3)]Gal(b1-3)GlcNAc(b1-2)Man(a1-3)[Fuc(a1-2)[GalNAc(a1-3)]Gal(b1-3)GlcNAc(b1-2)Man(a1-6)]Man(b1-4)GlcNAc(b1-4)[Fuc(a1-6)]GlcNAc", "how_it_was_run": "as §1"}, "[8]": {"target": "Fuc(a1-2)[GalNAc(a1-3)]Gal(b1-3)GlcNAc(b1-3)GalNAc", "how_it_was_run": "as §1"}, "[9]": {"target": "Fuc(a1-2)[GalNAc(a1-3)]Gal(b1-3)GlcNAc(b1-6)GalNAc", "how_it_was_run": "as §1"}, "[10]": {"target": "Fuc(a1-2)[GalNAc(a1-3)]Gal(b1-4)Glc", "how_it_was_run": "as §1"}, "[11]": {"target": "Fuc(a1-2)[GalNAc(a1-3)]Gal(b1-4)GlcNAc", "how_it_was_run": "as §1"}, "[12]": {"target": "Fuc(a1-2)[GalNAc(a1-3)]Gal(b1-4)GlcNAc(b1-2)Man", "how_it_was_run": "as §1"}, "[13]": {"target": "Fuc(a1-2)[GalNAc(a1-3)]Gal(b1-4)GlcNAc(b1-2)Man(a1-3)[Fuc(a1-2)[GalNAc(a1-3)]Gal(b1-4)GlcNAc(b1-2)Man(a1-6)]Man(b1-4)GlcNAc(b1-4)GlcNAc", "how_it_was_run": "as §1"}, "[14]": {"target": "Fuc(a1-2)[GalNAc(a1-3)]Gal(b1-4)GlcNAc(b1-2)Man(a1-3)[Fuc(a1-2)[GalNAc(a1-3)]Gal(b1-4)GlcNAc(b1-2)Man(a1-6)]Man(b1-4)GlcNAc(b1-4)[Fuc(a1-6)]GlcNAc", "how_it_was_run": "as §1"}, "[15]": {"target": "Fuc(a1-2)[GalNAc(a1-3)]Gal(b1-4)GlcNAc(b1-3)Gal(b1-4)GlcNAc", "how_it_was_run": "as §1"}, "[16]": {"target": "Fuc(a1-2)[GalNAc(a1-3)]Gal(b1-4)GlcNAc(b1-3)Gal(b1-4)GlcNAc(b1-3)Gal(b1-4)GlcNAc", "how_it_was_run": "as §1"}, "[17]": {"target": "Fuc(a1-2)[GalNAc(a1-3)]Gal(b1-4)GlcNAc(b1-3)GalNAc", "how_it_was_run": "as §1"}, "[18]": {"target": "Fuc(a1-2)[GalNAc(a1-3)]Gal(b1-4)GlcNAc(b1-3)[Fuc(a1-2)[GalNAc(a1-3)]Gal(b1-4)GlcNAc(b1-6)]GalNAc", "how_it_was_run": "as §1"}, "[19]": {"target": "Fuc(a1-2)[GalNAc(a1-3)]Gal(b1-4)GlcNAc(b1-6)GalNAc", "how_it_was_run": "as §1"}, "[20]": {"target": "Fuc(a1-2)[GalNAc(a1-3)]Gal(b1-4)[Fuc(a1-3)]GlcNAc", "how_it_was_run": "as §1"}, "[21]": {"target": "Fuc(a1-2)[GalNAc(a1-3)]Gal(b1-4)[Fuc(a1-3)]GlcNAc(b1-3)GalNAc", "how_it_was_run": "as §1"}, "[22]": {"target": "Fuc(a1-2)[GalNAc(a1-4)]Gal(b1-4)GlcNAc", "how_it_was_run": "as §1"}, "[23]": {"target": "Fuc(a1-2)[GalNAc(b1-3)]Gal", "how_it_was_run": "as §1"}, "Fuc(a1-3)GlcNAc": {"target": "Fuc(a1-3)GlcNAc", "how_it_was_run": "as §1"}, "[24]": {"target": "Fuc(a1-3)[Gal(b1-4)]Glc6S", "how_it_was_run": "as §1"}, "[25]": {"target": "Fuc(a1-3)[Gal(b1-4)]GlcNAc", "how_it_was_run": "as §1"}, "[26]": {"target": "Fuc(a1-3)[Gal(b1-4)]GlcNAc(b1-2)Man", "how_it_was_run": "as §1"}, "[27]": {"target": "Fuc(a1-3)[Gal(b1-4)]GlcNAc(b1-2)Man(a1-3)[Fuc(a1-3)[Gal(b1-4)]GlcNAc(b1-2)Man(a1-6)]Man(b1-4)GlcNAc(b1-4)GlcNAc", "how_it_was_run": "as §1"}, "[28]": {"target": "Fuc(a1-3)[Gal(b1-4)]GlcNAc(b1-2)Man(a1-3)[Fuc(a1-3)[Gal(b1-4)]GlcNAc(b1-2)Man(a1-6)]Man(b1-4)GlcNAc(b1-4)[Fuc(a1-6)]GlcNAc", "how_it_was_run": "as §1"}, "[29]": {"target": "Fuc(a1-3)[Gal(b1-4)]GlcNAc(b1-3)Gal(b1-3)[Fuc(a1-4)]GlcNAc", "how_it_was_run": "as §1"}, "[30]": {"target": "Fuc(a1-3)[Gal(b1-4)]GlcNAc(b1-3)Gal(b1-4)[Fuc(a1-3)]GlcNAc", "how_it_was_run": "as §1"}, "[31]": {"target": "Fuc(a1-3)[Gal(b1-4)]GlcNAc(b1-3)Gal(b1-4)[Fuc(a1-3)]GlcNAc(b1-3)Gal(b1-4)[Fuc(a1-3)]GlcNAc", "how_it_was_run": "as §1"}, "[32]": {"target": "Fuc(a1-3)[Gal(b1-4)]GlcNAc(b1-3)GalNAc", "how_it_was_run": "as §1"}, "[33]": {"target": "Fuc(a1-3)[Gal(b1-4)]GlcNAc(b1-6)GalNAc", "how_it_was_run": "as §1"}, "[34]": {"target": "Fuc(a1-3)[Gal(b1-4)]GlcNAc(b1-6)[Gal(b1-3)GlcNAc(b1-3)]Gal(b1-4)Glc", "how_it_was_run": "as §1"}, "[35]": {"target": "Fuc(a1-3)[Gal(b1-4)]GlcNAc6S", "how_it_was_run": "as §1"}, "[36]": {"target": "Fuc(a1-3)[Gal3S(b1-4)]Glc", "how_it_was_run": "as §1"}, "[37]": {"target": "Fuc(a1-3)[Gal3S(b1-4)]GlcNAc", "how_it_was_run": "as §1"}}, "note": "Some of the results follow.", "data": [{"binder": "B1", "values": [{"measurement": "glycan array binding signal (z-score)", "setting": "[1]", "value": -0.466}, {"measurement": "glycan array binding signal (z-score)", "setting": "[2]", "value": 0.066}, {"measurement": "glycan array binding signal (z-score)", "setting": "[3]", "value": -0.671}, {"measurement": "glycan array binding signal (z-score)", "setting": "[4]", "value": -0.318}, {"measurement": "glycan array binding signal (z-score)", "setting": "[5]", "value": -0.05}, {"measurement": "glycan array binding signal (z-score)", "setting": "[6]", "value": 0.798}, {"measurement": "glycan array binding signal (z-score)", "setting": "[7]", "value": -0.046}, {"measurement": "glycan array binding signal (z-score)", "setting": "[8]", "value": -0.257}, {"measurement": "glycan array binding signal (z-score)", "setting": "[9]", "value": -0.892}, {"measurement": "glycan array binding signal (z-score)", "setting": "[10]", "value": -0.12}, {"measurement": "glycan array binding signal (z-score)", "setting": "[11]", "value": -0.266}, {"measurement": "glycan array binding signal (z-score)", "setting": "[12]", "value": 0.065}, {"measurement": "glycan array binding signal (z-score)", "setting": "[13]", "value": -0.643}, {"measurement": "glycan array binding signal (z-score)", "setting": "[14]", "value": 2.12}, {"measurement": "glycan array binding signal (z-score)", "setting": "[15]", "value": -0.445}, {"measurement": "glycan array binding signal (z-score)", "setting": "[16]", "value": -0.438}, {"measurement": "glycan array binding signal (z-score)", "setting": "[17]", "value": -0.475}, {"measurement": "glycan array binding signal (z-score)", "setting": "[18]", "value": 0.341}, {"measurement": "glycan array binding signal (z-score)", "setting": "[19]", "value": -0.087}, {"measurement": "glycan array binding signal (z-score)", "setting": "[20]", "value": -0.348}, {"measurement": "glycan array binding signal (z-score)", "setting": "[21]", "value": -0.097}, {"measurement": "glycan array binding signal (z-score)", "setting": "[22]", "value": 0.411}, {"measurement": "glycan array binding signal (z-score)", "setting": "[23]", "value": -0.466}, {"measurement": "glycan array binding signal (z-score)", "setting": "Fuc(a1-3)GlcNAc", "value": -0.066}, {"measurement": "glycan array binding signal (z-score)", "setting": "[24]", "value": -0.485}, {"measurement": "glycan array binding signal (z-score)", "setting": "[25]", "value": -0.143}, {"measurement": "glycan array binding signal (z-score)", "setting": "[26]", "value": 0.325}, {"measurement": "glycan array binding signal (z-score)", "setting": "[27]", "value": -0.199}, {"measurement": "glycan array binding signal (z-score)", "setting": "[28]", "value": -0.637}, {"measurement": "glycan array binding signal (z-score)", "setting": "[29]", "value": -0.72}, {"measurement": "glycan array binding signal (z-score)", "setting": "[30]", "value": -0.611}, {"measurement": "glycan array binding signal (z-score)", "setting": "[31]", "value": -0.822}, {"measurement": "glycan array binding signal (z-score)", "setting": "[32]", "value": 0.098}, {"measurement": "glycan array binding signal (z-score)", "setting": "[33]", "value": 0.489}, {"measurement": "glycan array binding signal (z-score)", "setting": "[34]", "value": 0.275}, {"measurement": "glycan array binding signal (z-score)", "setting": "[35]", "value": 0.012}, {"measurement": "glycan array binding signal (z-score)", "setting": "[36]", "value": 0.336}, {"measurement": "glycan array binding signal (z-score)", "setting": "[37]", "value": 0.652}]}]}
